In all, about 18,000 sequences were measured (“TetR repression strength (sort-seq, GFP reporter)”: median about 0.23, highest 2% from about 0.68 on). The list shows a part of the results.

Chain of UniProt P04483 (P04483 whole entry): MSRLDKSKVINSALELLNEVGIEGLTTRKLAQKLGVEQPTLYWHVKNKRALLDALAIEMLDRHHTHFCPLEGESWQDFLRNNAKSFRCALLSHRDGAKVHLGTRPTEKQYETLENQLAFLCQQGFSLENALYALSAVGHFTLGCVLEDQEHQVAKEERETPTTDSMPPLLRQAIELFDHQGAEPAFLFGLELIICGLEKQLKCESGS

This test addresses TetR (class B, Tn10) (UniProt P04483). The experiment in a line: TetR repression strength (sort-seq, GFP reporter) (relative to tetO2 = 1); higher = stronger repression. As to conditions: E. coli. In outline:
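E. coli SIG10-MAX carried a low-copy plasmid library with eight randomized operator positions between a constitutive promoter and sfGFP, with TetR constitutively expressed. Cells grew 5 h at 37 °C in LB with 50 µg/mL chloramphenicol, then 10^6 cells were FACS-sorted into 13 fluorescence bins, each Illumina-sequenced. Repression strength is the top bin index plus one minus the read-weighted mean bin, divided by the wild-type operator value. Three independent transformations; variants with ≥30 reads in all replicates and CV ≤0.5 were averaged.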
TCCCCTACAGTGAGAGAGA gave a TetR repression strength of 0.293.
TCCCACCCAGTCAACGAGA: the TetR repression strength came out at 0.231.
In the case of TCCCCATCAGTGGGCGAGA it was 0.247; in that of TCCCCTCCAGTGGTGGAGA, 0.253; in that of TCCCTTGTAGTATGAGAGA, 0.071.
Next, TCCCACTTAGTGAATGAGA: 0.0683; TCCCGTTTAGTACCAGAGA: 0.196; TCCCAAGGAGTGTAGGAGA: 0.203.
As for TCCCTGCCAGTGCTGGAGA, the TetR repression strength stood at 0.395.
Next, TCCCGTACAGTAGCCGAGA: 0.518; TCCCGTGGAGTGATCGAGA: 0.185.
In the case of TCCCTGTAAGTACGCGAGA it was 0.24; in that of TCCCTCCTAGTGCGAGAGA, 0.151; in that of TCCCCGGAAGTAAGTGAGA, 0.177.
Next, TCCCTATCAGTGAGGGAGA: 0.5.
For TCCCTATAAGTTAAGGAGA, the TetR repression strength is 0.314.
In the case of TCCCAGGGAGTCCTTGAGA it was 0.0841.
In the case of TCCCACGGAGTCATCGAGA it was 0.543.
In turn, TCCCCGCGAGTTTAGGAGA had a TetR repression strength of 0.373.
In the case of TCCCACAAAGTGCGTGAGA it was 0.0817.
In the case of TCCCGACTAGTCGTAGAGA it was 0.442; in that of TCCCGAGGAGTAGCAGAGA, 0.227; in that of TCCCCGCAAGTCCTAGAGA, 0.215.
In the case of TCCCGCGTAGTAGGGGAGA it was 0.425.
In turn, TCCCTTGTAGTGGCGGAGA returned a TetR repression strength of 0.271.
Next, TCCCCACTAGTGAGCGAGA: 0.203; TCCCTTCGAGTGCGGGAGA: 0.221; TCCCGGATAGTCCTAGAGA: 0.0544.
Next, TCCCTCGCAGTGCGGGAGA: 0.252; TCCCGAGAAGTCAGGGAGA: 0.0148.
The sequence TCCCCTATAGTGGCAGAGA displayed a TetR repression strength of 0.113.
Consider TCCCTAAGAGTTCTCGAGA, for which the TetR repression strength amounted to 0.311.
Next, TCCCCCACAGTGTAAGAGA: 0.183; TCCCGATCAGTACACGAGA: 0.279.
Sequence TCCCCATCAGTCCTCGAGA showed a TetR repression strength of 0.327.
Take TCCCCGGAAGTAGGCGAGA: the TetR repression strength stood at 0.186.
Next, TCCCTTGTAGTCTCGGAGA: 0.364.
In the case of TCCCATAAAGTGTAGGAGA it was 0.357; in that of TCCCGTGGAGTAATGGAGA, 0.288; in that of TCCCAGTAAGTGGGTGAGA, 0.232.
In the case of TCCCTCGTAGTACGGGAGA it was 0.305.
Sequence TCCCGGTGAGTGGAGGAGA gave a TetR repression strength of 0.289.
Next, TCCCGAAGAGTCATTGAGA: 0.207; TCCCAATTAGTTAACGAGA: 0.213; TCCCTGTTAGTCTGTGAGA: 0.124.
Next, TCCCCGCTAGTTACCGAGA: 0.448; TCCCAGGAAGTTCCCGAGA: 0.0968; TCCCCGCCAGTAGCAGAGA: 0.671.
Next, TCCCAAATAGTCGGGGAGA: 0.12; TCCCGGCAAGTCGCGGAGA: 0.264; TCCCTCCGAGTGTAAGAGA: 0.281.
With TCCCAGCCAGTACGGGAGA, the TetR repression strength came out at 0.15.
In turn, TCCCGATCAGTTATGGAGA had a TetR repression strength of 0.478.
With TCCCAGTAAGTCCGGGAGA, the TetR repression strength is 0.157.
In the case of TCCCGAATAGTGCCTGAGA it was 0.525; in that of TCCCGTTAAGTTCCTGAGA, 0.721; in that of TCCCAGTGAGTCATGGAGA, 0.115.
Next, TCCCGGTCAGTTCAGGAGA: 0.358; TCCCTAGTAGTTGGTGAGA: 0.177; TCCCAGATAGTCGGCGAGA: 0.166.
In the case of TCCCCGTTAGTTGGTGAGA it was 0.116; in that of TCCCTTGTAGTTAACGAGA, 0.0908; in that of TCCCTGAGAGTATGAGAGA, 0.449.
TCCCTTGTAGTTGCAGAGA came in with a TetR repression strength of 0.13.
In the case of TCCCACATAGTGAACGAGA it was 0.412; in that of TCCCCGTCAGTTCAAGAGA, 0.294; in that of TCCCAGAAAGTTGGAGAGA, 0.225.
In the case of TCCCGGGAAGTATCAGAGA it was 0.0407.
In the case of TCCCACAGAGTGCAAGAGA it was 0.343; in that of TCCCGGCGAGTATGGGAGA, 0.182; in that of TCCCAAGTAGTAGAGGAGA, 0.165.
In turn, TCCCTGAAAGTTTCGGAGA yielded a TetR repression strength of 0.306.
With TCCCTGTTAGTCTTTGAGA, the TetR repression strength came out at 0.298.
In the case of TCCCAGGTAGTCCGAGAGA it was 0.242; in that of TCCCGAAGAGTCCAAGAGA, 0.431.
In the case of TCCCGTGCAGTAGGTGAGA it was 0.259.
Next, TCCCTGGGAGTGTGGGAGA: 0.155.
Take TCCCTCTAAGTTATGGAGA: the TetR repression strength was found to be 0.294.
In the case of TCCCTCGGAGTCCGCGAGA it was 0.516; in that of TCCCTTGGAGTTGTAGAGA, 0.381; in that of TCCCAGCTAGTGGCGGAGA, 0.316.
In the case of TCCCGGATAGTACTAGAGA it was 0.291.
In the case of TCCCATGGAGTCCTTGAGA it was 0.519; in that of TCCCGAAGAGTCATGGAGA, 0.205.
Regarding TCCCCATCAGTTCTAGAGA, the TetR repression strength is 0.604.
Next, TCCCTAGGAGTTAACGAGA: 0.358.
In the case of TCCCTTTTAGTGAGAGAGA it was 0.425.
Next, TCCCACCCAGTAGACGAGA: 0.227; TCCCTTTAAGTCTTAGAGA: 0.0126; TCCCTACAAGTTTGTGAGA: 0.0461.
The sequence TCCCGGTAAGTAGACGAGA displayed a TetR repression strength of 0.144.
Next, TCCCGCATAGTGGCTGAGA: 0.21.
The sequence TCCCGCTGAGTCTTGGAGA yielded a TetR repression strength of 0.135.
In the case of TCCCGCTCAGTGTGGGAGA it was 0.225; in that of TCCCAATCAGTAAGCGAGA, 0.347; in that of TCCCCGATAGTGGAGGAGA, 0.256.
Next, TCCCTCAAAGTTCGGGAGA: 0.0581.
Next, TCCCAAGTAGTATCAGAGA: 0.44; TCCCCGGGAGTTGTAGAGA: 0.162.
TCCCGTGGAGTGTTGGAGA had a TetR repression strength of 0.325.
In turn, TCCCGGGCAGTTCAGGAGA showed a TetR repression strength of 0.513.
Next, TCCCACAAAGTTCTGGAGA: 0.27; TCCCGCCGAGTGTCGGAGA: 0.265; TCCCAGAGAGTACTAGAGA: 0.336.
In the case of TCCCAGATAGTTGGTGAGA it was 0.428; in that of TCCCACAGAGTATAAGAGA, 0.358.
In the case of TCCCTTGCAGTACGTGAGA it was 0.536; in that of TCCCGGAGAGTACCAGAGA, 0.218.
Regarding TCCCTACTAGTCTGTGAGA, the TetR repression strength was determined as 0.327.
TCCCAAGAAGTATCGGAGA returned a TetR repression strength of 0.139.
Next, TCCCGTCTAGTGTTAGAGA: 0.851; TCCCGACGAGTGCGGGAGA: 0.157.
In the case of TCCCACTTAGTTTCTGAGA it was 0.104.
The sequence TCCCATAGAGTAATTGAGA yielded a TetR repression strength of 0.0803.
The sequence TCCCAAACAGTTGGTGAGA showed a TetR repression strength of 0.291.
In the case of TCCCTGCGAGTAGCGGAGA it was 0.36; in that of TCCCACCTAGTCTCTGAGA, 0.412; in that of TCCCGAAAAGTTAGAGAGA, 0.131.
For TCCCGTGAAGTGAGCGAGA, the TetR repression strength worked out at 0.888.
Next, TCCCCAGGAGTTTTTGAGA: 0.297; TCCCGTCAAGTACCCGAGA: 0.325; TCCCCAAAAGTGTCCGAGA: 0.302.
Next, TCCCTTATAGTTCATGAGA: 0.4.
As to TCCCGTCAAGTTGTGGAGA, the TetR repression strength was determined as 0.0694.
In the case of TCCCGAGGAGTGGCGGAGA it was 0.356; in that of TCCCGCGAAGTGGGGGAGA, 0.213.
Next, TCCCGGAGAGTAAGGGAGA: 0.37.
In the case of TCCCATTGAGTCCAGGAGA it was 0.158; in that of TCCCTATTAGTAGGGGAGA, 0.0567.
In the case of TCCCATGTAGTGGTAGAGA, the TetR repression strength stood at 0.221.

(Values after a collection of fitness landscapes (doi:10.1038/s41467-024-54723-y).)
